In patent publication US8013006B2:

Test system: HCV IRES-driven translation
Protocol: Both HepGmono-4 and pLuc cells are treated with the compounds as described above, following treatment with the test compounds for 20 hours, cells are collected and lysed in Laminin buffer containing 0.5% SDS. Proteins are separated on a 10% SDS-PAGE, then transferred onto a nitrocellulose membrane, and blotted using antibodies against Fluc (RDI) and β-actin (Oncogene).

In the case of `COc1ccc(C[C@H](N)C(=O)N[C@H]2[C@@H](O)[C@H](n3cnc4c(N(C)C)ncnc43)O[C@@H]2CO)cc1` [puromycin], the “luciferase reporter protein level (HCV IRES-driven), Western blot” value is reported as “inhibited”.
